67 sequences from the supplement of paper PMC10126150 can be followed below.

Sequences with one replicate were seen in a single cluster, so their values are uncertain.
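Further: ATP exposure 15 min at 22 °C before imaging.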

This data set concerns ATP. Briefly: switch fluorescence ratio, 500 uM ATP over buffer (Cy3 cluster intensity, sum of 5 cycles each) (fold (ratio)); higher = stronger signal-on switching upon ATP binding; sequences stand for … in TCGTCGGCAGCGTCAGATGTGTATAAGAGACAGTTTTTTTTTTTTTTTTTTTTTTTTT…TC. The note with it: aptamer strand: ATP DNA aptamer (quencher-CACCTGGGGGAGTATTGCGGAGGAAGG + anchor), 100 nM annealed; ATP concentration: 500 uM; one replicate. Summed up: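 The quencher-labelled ATP aptamer, at 100 nM, was annealed to Cy3-labelled switching-strand clusters on a modified Illumina MiSeq flow-cell. The clusters were imaged in selection buffer, then after 15 min with 500 uM ATP at 22 °C, and this buffer/ATP cycle ran five times with NaOH stripping and re-annealing between runs. Per-cluster fluorescence ratios, summed target-cycle over summed buffer-cycle Cy3 intensity, were averaged per switch-domain sequence. Clusters outside 100-1000 RFU were excluded.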
On to GGTATAGTTC, for which the switch fluorescence ratio is 0.995. As to GAGCAGTATA, the switch fluorescence ratio is 1.04. The result for AATAGCGACG reads 0.967; that for CTGGCCTGCT, 1.04.

With GTCCTCGGA, the switch fluorescence ratio amounted to 1.05.

Turning to AACCTAGTG, the switch fluorescence ratio was found to be 1.03. The value for AATAATGCAC was 1.06. The value for AGAGGCGGCG was 0.969; that for TCGTGCAGA was 0.993; that for CATAGTCTA was 1.02. The result for TGTTCATCGA reads 0.981; that for AAAAGTCCGT, 1.03; that for GAGATGTTGC, 0.992.

Take CGCGACATAT: the switch fluorescence ratio was 1.1. The value for TCGCTTGATT was 1.01; that for TCTAACATGA was 1; that for TTAAGCTCTT was 0.956. The value for GCATACTTAT was 1.05; that for GTTGGGTAG was 0.995.

For the sequence AAAGGCATTA, the switch fluorescence ratio turned out to be 0.989. The result for TAACAGTCTT reads 0.994; that for TTTTATTA, 0.995; that for TTTGTCATC, 1.04.

On to ACAACGTTGG, for which the switch fluorescence ratio worked out at 1.04. The result for ATTACCGCTG reads 1.06; that for TGTGGTAGTT, 0.985; that for ATCCATGTTT, 0.991. In the case of GGATATGCTG, the switch fluorescence ratio was found to be 1.07. The result for TTACAGAC reads 1.15; that for GATGTTGCCC, 1.01; that for CATGTCTCGT, 0.999. In the case of TACGGGCAA, the switch fluorescence ratio was 1.22. The value for GGCCGAACGG was 1.04; that for AAAACATAAG was 1. The value for TATGCTGCTT was 1; that for GCGATAGATA was 0.98. The result for ACCTTGGCCC reads 0.955; that for GCACGATTAT, 1.05. As to ATCGCTTGCA, the switch fluorescence ratio worked out at 0.996.

As for AAGAGCAACA, the switch fluorescence ratio came out at 1.06. The result for TCGGGGAG reads 1; that for ATCTTTCAAG, 1.07; that for TGCTGATGAG, 0.985.

TGCTTTATGT: the switch fluorescence ratio came to 0.983.

With TTTGTTCGG, the switch fluorescence ratio is 0.985. For TTCCGCATCA, the switch fluorescence ratio stood at 3.58. The result for CACACTTTT reads 1.01; that for GGAAGTTGG, 0.935; that for AAGTCGGCAA, 1.37. The value for TCAGGACAGG was 1.04; that for GGTGCATCT was 1.02; that for CGAACTGACC was 1.25.

Regarding TCGTTTGGGA, the switch fluorescence ratio is 1.02. For CGAAAAGATA, the switch fluorescence ratio was found to be 1.02. The result for GCCTGGAGC reads 1.01; that for ATACACGAC, 1.2; that for TTACACTCGC, 1.07. The result for TTAGTATAG reads 0.997; that for CATGTGAAAA, 1.05; that for AACAACAGCA, 1.03. The value for CAAGGCTAGT was 1.08; that for GAAAATCGGG was 0.993; that for GCTCTGAGGT was 1.01. Take TCTCACGAAA: the switch fluorescence ratio was found to be 1.19. The value for ATGACACGG was 1.02; that for AGACAAAATC was 1.07; that for CTAGGAAATA was 0.983.
